# The supplement of paper PMC8728848
# This is one part of the list.
# B1: CFEM-SCL (Saccharomyces cerevisiae), O13547 (protein)
# chain: MRATTLLSSVVSLALLSKEVLATPPACLLACVAQVGKSSSTCDSLNQVTCYCEHENSAVKKCLDSICPNNDADAAYSAFKSSCSEQNASLGD
# What was measured:
# Test in all cases: glycan array binding signal (z-score within array); higher = stronger binding
# Conditions in all cases: glycan notation: IUPAC condensed, linker removed
# [1] = target: Gal(b1-4)GlcNAc(b1-3)Gal(b1-4)GlcNAc(b1-2)Man(a1-3)[Gal(b1-4)GlcNAc(b1-3)Gal(b1-4)GlcNAc(b1-2)Man(a1-6)]Man(b1-4)GlcNAc(b1-4)[Fuc(a1-6)]GlcNAc
# Procedure, shortened: (§1)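 Glycan array data were curated from 3228 arrays in the Consortium for Functional Glycomics database and kept only where the protein sequence was available. Glycan names were converted to IUPAC-condensed notation, and columns mapping to the same glycan were averaged. The binding signal is a within-array Z-score, averaged across arrays of the same protein sequence at different concentrations or buffers and across linkers. Negative Z-scores can be read as non-binding.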
# [2] = target: Gal(b1-4)GlcNAc(b1-3)Gal(b1-4)GlcNAc(b1-2)[Gal(b1-4)GlcNAc(b1-3)Gal(b1-4)GlcNAc(b1-6)]Man(a1-6)[Gal(b1-4)GlcNAc(b1-3)Gal(b1-4)GlcNAc(b1-2)Man(a1-3)]Man(b1-4)GlcNAc(b1-4)GlcNAc
# Procedure, shortened: as §1
# [3] = target: Gal(b1-4)GlcNAc(b1-3)Gal(b1-4)GlcNAc(b1-2)[Gal(b1-4)GlcNAc(b1-3)Gal(b1-4)GlcNAc(b1-6)]Man(a1-6)[Gal(b1-4)GlcNAc(b1-3)Gal(b1-4)GlcNAc(b1-2)Man(a1-3)]Man(b1-4)GlcNAc(b1-4)[Fuc(a1-6)]GlcNAc
# Procedure, shortened: as §1
# [4] = target: Gal(b1-4)GlcNAc(b1-3)Gal(b1-4)GlcNAc(b1-3)Gal(b1-4)GlcNAc
# Procedure, shortened: as §1
# [5] = target: Gal(b1-4)GlcNAc(b1-3)Gal(b1-4)GlcNAc(b1-3)Gal(b1-4)GlcNAc(b1-2)Man(a1-3)[Gal(b1-4)GlcNAc(b1-3)Gal(b1-4)GlcNAc(b1-3)Gal(b1-4)GlcNAc(b1-2)Man(a1-6)]Man(b1-4)GlcNAc(b1-4)GlcNAc
# Procedure, shortened: as §1
# [6] = target: Gal(b1-4)GlcNAc(b1-3)Gal(b1-4)GlcNAc(b1-3)Gal(b1-4)GlcNAc(b1-2)Man(a1-3)[Gal(b1-4)GlcNAc(b1-3)Gal(b1-4)GlcNAc(b1-3)Gal(b1-4)GlcNAc(b1-2)Man(a1-6)]Man(b1-4)GlcNAc(b1-4)[Fuc(a1-6)]GlcNAc
# Procedure, shortened: as §1
# [7] = target: Gal(b1-4)GlcNAc(b1-3)Gal(b1-4)GlcNAc(b1-3)Gal(b1-4)GlcNAc(b1-2)[Gal(b1-4)GlcNAc(b1-3)Gal(b1-4)GlcNAc(b1-3)Gal(b1-4)GlcNAc(b1-6)]Man(a1-6)[Gal(b1-4)GlcNAc(b1-3)Gal(b1-4)GlcNAc(b1-3)Gal(b1-4)GlcNAc(b1-2)Man(a1-3)]Man(b1-4)GlcNAc(b1-4)[Fuc(a1-6)]GlcNAc
# Procedure, shortened: as §1
# [8] = target: Gal(b1-4)GlcNAc(b1-3)Gal(b1-4)GlcNAc(b1-3)Gal(b1-4)GlcNAc(b1-3)Gal(b1-4)GlcNAc(b1-2)Man(a1-3)[Gal(b1-4)GlcNAc(b1-3)Gal(b1-4)GlcNAc(b1-3)Gal(b1-4)GlcNAc(b1-3)Gal(b1-4)GlcNAc(b1-2)Man(a1-6)]Man(b1-4)GlcNAc(b1-4)GlcNAc
# Procedure, shortened: as §1
# [9] = target: Gal(b1-4)GlcNAc(b1-3)Gal(b1-4)GlcNAc(b1-3)Gal(b1-4)GlcNAc(b1-3)Gal(b1-4)GlcNAc(b1-2)Man(a1-3)[Gal(b1-4)GlcNAc(b1-3)Gal(b1-4)GlcNAc(b1-3)Gal(b1-4)GlcNAc(b1-3)Gal(b1-4)GlcNAc(b1-2)Man(a1-6)]Man(b1-4)GlcNAc(b1-4)[Fuc(a1-6)]GlcNAc
# Procedure, shortened: as §1
# [10] = target: Gal(b1-4)GlcNAc(b1-3)Gal(b1-4)GlcNAc(b1-3)Gal(b1-4)GlcNAc(b1-3)Gal(b1-4)GlcNAc(b1-2)[Gal(b1-4)GlcNAc(b1-3)Gal(b1-4)GlcNAc(b1-3)Gal(b1-4)GlcNAc(b1-3)Gal(b1-4)GlcNAc(b1-6)]Man(a1-6)[Gal(b1-4)GlcNAc(b1-3)Gal(b1-4)GlcNAc(b1-3)Gal(b1-4)GlcNAc(b1-3)Gal(b1-4)GlcNAc(b1-2)Man(a1-3)]Man(b1-4)GlcNAc(b1-4)[Fuc(a1-6)]GlcNAc
# Procedure, shortened: as §1
# [11] = target: Gal(b1-4)GlcNAc(b1-3)Gal(b1-4)GlcNAc(b1-3)Gal(b1-4)GlcNAc(b1-3)Gal(b1-4)GlcNAc(b1-3)Gal(b1-4)GlcNAc(b1-2)Man(a1-3)[Gal(b1-4)GlcNAc(b1-3)Gal(b1-4)GlcNAc(b1-3)Gal(b1-4)GlcNAc(b1-3)Gal(b1-4)GlcNAc(b1-3)Gal(b1-4)GlcNAc(b1-2)Man(a1-6)]Man(b1-4)GlcNAc(b1-4)GlcNAc
# Procedure, shortened: as §1
# [12] = target: Gal(b1-4)GlcNAc(b1-3)Gal(b1-4)GlcNAc(b1-3)Gal(b1-4)GlcNAc(b1-3)Gal(b1-4)GlcNAc(b1-3)Gal(b1-4)GlcNAc(b1-2)Man(a1-3)[Gal(b1-4)GlcNAc(b1-3)Gal(b1-4)GlcNAc(b1-3)Gal(b1-4)GlcNAc(b1-3)Gal(b1-4)GlcNAc(b1-3)Gal(b1-4)GlcNAc(b1-2)Man(a1-6)]Man(b1-4)GlcNAc(b1-4)[Fuc(a1-6)]GlcNAc
# Procedure, shortened: as §1
# [13] = target: Gal(b1-4)GlcNAc(b1-3)Gal(b1-4)GlcNAc(b1-3)Gal(b1-4)GlcNAc(b1-3)Gal(b1-4)GlcNAc(b1-3)Gal(b1-4)GlcNAc(b1-2)[Gal(b1-4)GlcNAc(b1-3)Gal(b1-4)GlcNAc(b1-3)Gal(b1-4)GlcNAc(b1-3)Gal(b1-4)GlcNAc(b1-3)Gal(b1-4)GlcNAc(b1-6)]Man(a1-6)[Gal(b1-4)GlcNAc(b1-3)Gal(b1-4)GlcNAc(b1-3)Gal(b1-4)GlcNAc(b1-3)Gal(b1-4)GlcNAc(b1-3)Gal(b1-4)GlcNAc(b1-2)Man(a1-3)]Man(b1-4)GlcNAc(b1-4)[Fuc(a1-6)]GlcNAc
# Procedure, shortened: as §1
# [14] = target: Gal(b1-4)GlcNAc(b1-3)Gal(b1-4)GlcNAc(b1-3)Gal(b1-4)GlcNAc(b1-3)Gal(b1-4)GlcNAc(b1-3)Gal(b1-4)GlcNAc(b1-3)Gal(b1-4)GlcNAc(b1-2)Man(a1-3)[Gal(b1-4)GlcNAc(b1-3)Gal(b1-4)GlcNAc(b1-3)Gal(b1-4)GlcNAc(b1-3)Gal(b1-4)GlcNAc(b1-3)Gal(b1-4)GlcNAc(b1-3)Gal(b1-4)GlcNAc(b1-2)Man(a1-6)]Man(b1-4)GlcNAc(b1-4)GlcNAc
# Procedure, shortened: as §1
# [15] = target: Gal(b1-4)GlcNAc(b1-3)Gal(b1-4)GlcNAc(b1-3)GalNAc
# Procedure, shortened: as §1
# [16] = target: Gal(b1-4)GlcNAc(b1-3)Gal(b1-4)GlcNAc(b1-3)[Gal(b1-4)GlcNAc(b1-3)Gal(b1-4)GlcNAc(b1-6)]GalNAc
# Procedure, shortened: as §1
# [17] = target: Gal(b1-4)GlcNAc(b1-3)Gal(b1-4)GlcNAc(b1-6)[Gal(b1-3)]GalNAc
# Procedure, shortened: as §1
# [18] = target: Gal(b1-4)GlcNAc(b1-3)Gal(b1-4)[Fuc(a1-3)]GlcNAc(b1-3)Gal(b1-4)[Fuc(a1-3)]GlcNAc
# Procedure, shortened: as §1
# [19] = target: Gal(b1-4)GlcNAc(b1-3)GalNAc
# Procedure, shortened: as §1
# [20] = target: Gal(b1-4)GlcNAc(b1-3)[Fuc(a1-3)GlcNAc(b1-6)]Gal(b1-4)Glc
# Procedure, shortened: as §1
# [21] = target: Gal(b1-4)GlcNAc(b1-3)[Gal(b1-4)GlcNAc(b1-6)]Gal(b1-4)GlcNAc
# Procedure, shortened: as §1
# [22] = target: Gal(b1-4)GlcNAc(b1-3)[GlcNAc(b1-6)]Gal(b1-4)GlcNAc
# Procedure, shortened: as §1
# [23] = target: Gal(b1-4)GlcNAc(b1-6)Gal(b1-4)GlcNAc
# Procedure, shortened: as §1
# [24] = target: Gal(b1-4)GlcNAc(b1-6)GalNAc
# Procedure, shortened: as §1
# [25] = target: Gal(b1-4)GlcNAc(b1-6)[Gal(b1-3)]GalNAc
# Procedure, shortened: as §1
# [26] = target: Gal(b1-4)GlcNAc(b1-6)[Gal(b1-4)GlcNAc(b1-3)]GalNAc
# Procedure, shortened: as §1
# [27] = target: Gal(b1-4)GlcNAc6P
# Procedure, shortened: as §1
# [28] = target: Gal(b1-6)Gal
# Procedure, shortened: as §1
# [29] = target: Gal3S(b1-3)GalNAc
# Procedure, shortened: as §1
# [30] = target: Gal3S(b1-3)GlcNAc
# Procedure, shortened: as §1
# [31] = target: Gal3S(b1-3)[Fuc(a1-4)]GlcNAc
# Procedure, shortened: as §1
# [32] = target: Gal3S(b1-4)Glc
# Procedure, shortened: as §1
# [33] = target: Gal3S(b1-4)Glc6S
# Procedure, shortened: as §1
# [34] = target: Gal3S(b1-4)GlcNAc
# Procedure, shortened: as §1
# [35] = target: Gal3S(b1-4)[Fuc(a1-3)]Glc6S
# Procedure, shortened: as §1
# [36] = target: Gal3S(b1-4)[Fuc(a1-3)]GlcNAc
# Procedure, shortened: as §1
# [37] = target: Gal3S(b1-4)[Fuc(a1-3)]GlcNAc6S
# Procedure, shortened: as §1
# [38] = target: Gal3S4S(b1-4)GlcNAc
# Procedure, shortened: as §1
# [39] = target: Gal3S6S(b1-4)GlcNAc
# Procedure, shortened: as §1
# [40] = target: Gal3S6S(b1-4)GlcNAc6S
# Procedure, shortened: as §1
# [41] = target: Gal4S(b1-4)GlcNAc
# Procedure, shortened: as §1
# [42] = target: Gal4S6S(b1-4)GlcNAc
# Procedure, shortened: as §1
# [43] = target: Gal6P(b1-4)GlcNAc
# Procedure, shortened: as §1
# [44] = target: Gal6S(b1-3)GlcNAc
# Procedure, shortened: as §1
# [45] = target: Gal6S(b1-3)GlcNAc6S
# Procedure, shortened: as §1
binder,measurement,setting,value
B1,glycan array binding signal (z-score),[1],-0.053
same,glycan array binding signal (z-score),[2],0.079
same,glycan array binding signal (z-score),[3],0.588
same,glycan array binding signal (z-score),[4],-0.269
same,glycan array binding signal (z-score),[5],1.29
same,glycan array binding signal (z-score),[6],0.117
same,glycan array binding signal (z-score),[7],0.574
same,glycan array binding signal (z-score),[8],-0.022
same,glycan array binding signal (z-score),[9],0.035
same,glycan array binding signal (z-score),[10],0.071
same,glycan array binding signal (z-score),[11],-0.136
same,glycan array binding signal (z-score),[12],-0.165
same,glycan array binding signal (z-score),[13],0.078
same,glycan array binding signal (z-score),[14],-0.115
same,glycan array binding signal (z-score),[15],-0.04
same,glycan array binding signal (z-score),[16],0.143
same,glycan array binding signal (z-score),[17],0.781
same,glycan array binding signal (z-score),[18],-0.13
same,glycan array binding signal (z-score),[19],-0.111
same,glycan array binding signal (z-score),[20],-0.299
same,glycan array binding signal (z-score),[21],-0.139
same,glycan array binding signal (z-score),[22],-0.253
same,glycan array binding signal (z-score),[23],0.08
same,glycan array binding signal (z-score),[24],0.004
same,glycan array binding signal (z-score),[25],1.55
same,glycan array binding signal (z-score),[26],0.018
same,glycan array binding signal (z-score),[27],-0.237
same,glycan array binding signal (z-score),[28],0.31
same,glycan array binding signal (z-score),[29],-0.244
same,glycan array binding signal (z-score),[30],-0.282
same,glycan array binding signal (z-score),[31],-0.167
same,glycan array binding signal (z-score),[32],-0.311
same,glycan array binding signal (z-score),[33],-0.267
same,glycan array binding signal (z-score),[34],-0.261
same,glycan array binding signal (z-score),[35],0.629
same,glycan array binding signal (z-score),[36],-0.246
same,glycan array binding signal (z-score),[37],-0.242
same,glycan array binding signal (z-score),[38],-0.32
same,glycan array binding signal (z-score),[39],-0.204
same,glycan array binding signal (z-score),[40],-0.005
same,glycan array binding signal (z-score),[41],-0.228
same,glycan array binding signal (z-score),[42],-0.239
same,glycan array binding signal (z-score),[43],-0.3
same,glycan array binding signal (z-score),[44],-0.146
same,glycan array binding signal (z-score),[45],-0.092
